Consider 19 molecules from the supplement of paper PMC10369915.

The other results are listed elsewhere or left out. No stated cut-off is given here; in the data, active = 3.2 or more and inactive = the rest. Most of these values are background signal.
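Further: displayed peptides selected on beads carrying the immobilized SH2 domain, with library peptides lacking any tyrosine serving as negative controls.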

One experiment addresses SHP2 C-SH2 domain E139D. The experiment can be described thus: enrichment score (SH2-bound / input frequency) (ratio); bacterial display of known human phosphotyrosine sites (pTyr-Var adds point mutants) read by sequencing; higher = stronger binding; tyrosines were phosphorylated by kinases first. Particulars: peptide library: pTyr-Var.
Consider SVIVPYEPPEV [TP53_Y220_V217I], for which the enrichment score is inactive: 0.819.
The same measure, in the same setting: with SVVVPSEPPEV [TP53_Y220_Y220S] the figure was inactive: 0.573; with SVVVPYEPPEI [TP53_Y220_V225I], inactive: 0.888.
For the molecule CTTFHYNYMCN [TP53_Y234_I232F], the enrichment score was active: 3.54.
On the same count and under the same terms, with STTIHYNFMCN [TP53_Y234_C229S_YF] the figure was inactive: 1.28.
Regarding RTTIHYNYMCN [TP53_Y234_C229R], the enrichment score is inactive: 0.809.
Still for that read-out and setting: in the case of CTTIHYNYMCI [TP53_Y234_N239I] it was active: 4.6.
Still for that read-out and setting: with CTTIHYTFMCN [TP53_Y234_N235T_YF] the figure was active: 4.12.
As for CTTIHYNFLCN [TP53_Y234_M237L_YF], the enrichment score is active: 3.93.
As to CTTIHYNYMWN [TP53_Y234_C238W], the enrichment score is inactive: 1.47.
Take CTTVHYNYMCN [TP53_Y234_I232V]: the enrichment score was active: 4.11.
Same read-out and setting: in the case of CTTIHYNFTCN [TP53_Y234_M237T_YF] it was active: 4.18; in that of SVVAPYEPPEV [TP53_Y220_V218A], inactive: 0.707; in that of CTTIHYNFMWN [TP53_Y234_C238W_YF], inactive: 2.08.
CTTIHYNFMHN [TP53_Y234_C238H_YF]: the enrichment score is inactive: 2.49.
For CTTILYNYMCN [TP53_Y234_H233L], the enrichment score was active: 3.67.
The same measure, in the same setting: with CTTIHYNYMFN [TP53_Y234_C238F] the figure was inactive: 1.63; with SVVGPYEPPEV [TP53_Y220_V218G], inactive: 0.656.
CTTIHYNYICN [TP53_Y234_M237I]: the enrichment score was active: 5.92.

A further experiment has as its target SHP2 C-SH2 domain wild-type. The description is as above. Particulars: peptide library: pTyr-Var.
In the case of SVIVPYEPPEV [TP53_Y220_V217I], the enrichment score is inactive: 0.877.
On the same count and under the same terms, with SVVVPSEPPEV [TP53_Y220_Y220S] the figure was inactive: 0.678.
Still for that read-out and setting: in the case of SVVVPYEPPEI [TP53_Y220_V225I] it was inactive: 0.821.
CTTFHYNYMCN [TP53_Y234_I232F]: the enrichment score is active: 4.53.
Still for that read-out and setting: with STTIHYNFMCN [TP53_Y234_C229S_YF] the figure was inactive: 1.2; with RTTIHYNYMCN [TP53_Y234_C229R], inactive: 0.922; with CTTIHYNYMCI [TP53_Y234_N239I], active: 4.86.
As for CTTIHYTFMCN [TP53_Y234_N235T_YF], the enrichment score was active: 3.64.
On the same count and under the same terms, in the case of CTTIHYNFLCN [TP53_Y234_M237L_YF] it was active: 3.61.
On the same count and under the same terms, in the case of CTTIHYNYMWN [TP53_Y234_C238W] it was inactive: 1.8.
As for CTTVHYNYMCN [TP53_Y234_I232V], the enrichment score was active: 6.33.
CTTIHYNFTCN [TP53_Y234_M237T_YF]: the enrichment score is active: 4.19.
Turning to SVVAPYEPPEV [TP53_Y220_V218A], the enrichment score is inactive: 0.631.
Still for that read-out and setting: with CTTIHYNFMWN [TP53_Y234_C238W_YF] the figure was inactive: 2.44; with CTTIHYNFMHN [TP53_Y234_C238H_YF], inactive: 2.29; with CTTILYNYMCN [TP53_Y234_H233L], active: 3.39.
Still for that read-out and setting: with CTTIHYNYMFN [TP53_Y234_C238F] the figure was inactive: 1.81; with SVVGPYEPPEV [TP53_Y220_V218G], inactive: 0.576; with CTTIHYNYICN [TP53_Y234_M237I], active: 5.69.

The target in another experiment is SHP2 N-SH2 domain L43F. The experiment is described as above. Particulars: peptide library: pTyr-Var.
As for SVIVPYEPPEV [TP53_Y220_V217I], the enrichment score is inactive: 0.866.
Turning to SVVVPSEPPEV [TP53_Y220_Y220S], the enrichment score is inactive: 0.799.
The same measure, in the same setting: in the case of SVVVPYEPPEI [TP53_Y220_V225I] it was inactive: 0.973; in that of CTTFHYNYMCN [TP53_Y234_I232F], inactive: 2.78.
Still for that read-out and setting: in the case of STTIHYNFMCN [TP53_Y234_C229S_YF] it was inactive: 1.11; in that of RTTIHYNYMCN [TP53_Y234_C229R], inactive: 0.905; in that of CTTIHYNYMCI [TP53_Y234_N239I], active: 3.69.
On the same count and under the same terms, in the case of CTTIHYTFMCN [TP53_Y234_N235T_YF] it was active: 3.48; in that of CTTIHYNFLCN [TP53_Y234_M237L_YF], active: 3.71.
For the molecule CTTIHYNYMWN [TP53_Y234_C238W], the enrichment score is inactive: 1.28.
Take CTTVHYNYMCN [TP53_Y234_I232V]: the enrichment score was active: 3.29.
Consider CTTIHYNFTCN [TP53_Y234_M237T_YF], for which the enrichment score was active: 4.19.
For the molecule SVVAPYEPPEV [TP53_Y220_V218A], the enrichment score was inactive: 0.6.
Same read-out and setting: with CTTIHYNFMWN [TP53_Y234_C238W_YF] the figure was inactive: 1.97.
On to CTTIHYNFMHN [TP53_Y234_C238H_YF], for which the enrichment score is inactive: 1.99.
The same measure, in the same setting: in the case of CTTILYNYMCN [TP53_Y234_H233L] it was active: 3.49.
Consider CTTIHYNYMFN [TP53_Y234_C238F], for which the enrichment score is inactive: 1.46.
Same read-out and setting: with SVVGPYEPPEV [TP53_Y220_V218G] the figure was inactive: 0.682.
On the same count and under the same terms, in the case of CTTIHYNYICN [TP53_Y234_M237I] it was active: 3.74.

The next experiment deals with SHP2 N-SH2 domain T42A. The experiment is described as above. Particulars: peptide library: pTyr-Var.
Take SVIVPYEPPEV [TP53_Y220_V217I]: the enrichment score is inactive: 0.805.
Still for that read-out and setting: with SVVVPSEPPEV [TP53_Y220_Y220S] the figure was inactive: 0.661.
For the molecule SVVVPYEPPEI [TP53_Y220_V225I], the enrichment score was inactive: 0.713.
On the same count and under the same terms, with CTTFHYNYMCN [TP53_Y234_I232F] the figure was inactive: 2.74.
Still for that read-out and setting: in the case of STTIHYNFMCN [TP53_Y234_C229S_YF] it was inactive: 0.98.
Turning to RTTIHYNYMCN [TP53_Y234_C229R], the enrichment score is inactive: 0.831.
Regarding CTTIHYNYMCI [TP53_Y234_N239I], the enrichment score is active: 3.42.
On to CTTIHYTFMCN [TP53_Y234_N235T_YF], for which the enrichment score is inactive: 2.75.
Still for that read-out and setting: in the case of CTTIHYNFLCN [TP53_Y234_M237L_YF] it was inactive: 2.87; in that of CTTIHYNYMWN [TP53_Y234_C238W], inactive: 1.38; in that of CTTVHYNYMCN [TP53_Y234_I232V], inactive: 3.17.
For CTTIHYNFTCN [TP53_Y234_M237T_YF], the enrichment score is inactive: 3.13.
For SVVAPYEPPEV [TP53_Y220_V218A], the enrichment score was inactive: 0.512.
On to CTTIHYNFMWN [TP53_Y234_C238W_YF], for which the enrichment score was inactive: 1.85.
For the molecule CTTIHYNFMHN [TP53_Y234_C238H_YF], the enrichment score was inactive: 1.8.
The same measure, in the same setting: with CTTILYNYMCN [TP53_Y234_H233L] the figure was inactive: 2.6; with CTTIHYNYMFN [TP53_Y234_C238F], inactive: 1.87; with SVVGPYEPPEV [TP53_Y220_V218G], inactive: 0.443.
Take CTTIHYNYICN [TP53_Y234_M237I]: the enrichment score was active: 3.21.

Another experiment addresses SHP2 N-SH2 domain T52S. The experiment is described as above. As to conditions: peptide library: pTyr-Var.
As for SVIVPYEPPEV [TP53_Y220_V217I], the enrichment score is inactive: 0.77.
As for SVVVPSEPPEV [TP53_Y220_Y220S], the enrichment score was inactive: 0.849.
Turning to SVVVPYEPPEI [TP53_Y220_V225I], the enrichment score is inactive: 0.95.
With CTTFHYNYMCN [TP53_Y234_I232F], the enrichment score was inactive: 3.08.
Take STTIHYNFMCN [TP53_Y234_C229S_YF]: the enrichment score was inactive: 1.09.
Still for that read-out and setting: with RTTIHYNYMCN [TP53_Y234_C229R] the figure was inactive: 0.826; with CTTIHYNYMCI [TP53_Y234_N239I], active: 3.64; with CTTIHYTFMCN [TP53_Y234_N235T_YF], active: 3.49.
Same read-out and setting: with CTTIHYNFLCN [TP53_Y234_M237L_YF] the figure was inactive: 3.14; with CTTIHYNYMWN [TP53_Y234_C238W], inactive: 1.46; with CTTVHYNYMCN [TP53_Y234_I232V], active: 3.26.
As to CTTIHYNFTCN [TP53_Y234_M237T_YF], the enrichment score was active: 3.36.
As to SVVAPYEPPEV [TP53_Y220_V218A], the enrichment score was inactive: 0.579.
For CTTIHYNFMWN [TP53_Y234_C238W_YF], the enrichment score is inactive: 2.27.
Consider CTTIHYNFMHN [TP53_Y234_C238H_YF], for which the enrichment score is inactive: 2.23.
As to CTTILYNYMCN [TP53_Y234_H233L], the enrichment score was active: 3.24.
Regarding CTTIHYNYMFN [TP53_Y234_C238F], the enrichment score was inactive: 1.48.
For the molecule SVVGPYEPPEV [TP53_Y220_V218G], the enrichment score is inactive: 0.628.
CTTIHYNYICN [TP53_Y234_M237I]: the enrichment score is active: 3.4.

The next experiment addresses SHP2 N-SH2 domain wild-type. Described as above. Particulars: peptide library: pTyr-Var.
On to SVIVPYEPPEV [TP53_Y220_V217I], for which the enrichment score is inactive: 0.881.
Regarding SVVVPSEPPEV [TP53_Y220_Y220S], the enrichment score is inactive: 0.761.
Same read-out and setting: with SVVVPYEPPEI [TP53_Y220_V225I] the figure was inactive: 0.867; with CTTFHYNYMCN [TP53_Y234_I232F], inactive: 2.88; with STTIHYNFMCN [TP53_Y234_C229S_YF], inactive: 1.28.
Still for that read-out and setting: in the case of RTTIHYNYMCN [TP53_Y234_C229R] it was inactive: 1.08; in that of CTTIHYNYMCI [TP53_Y234_N239I], active: 3.93.
The same measure, in the same setting: with CTTIHYTFMCN [TP53_Y234_N235T_YF] the figure was active: 3.82; with CTTIHYNFLCN [TP53_Y234_M237L_YF], inactive: 2.92.
As to CTTIHYNYMWN [TP53_Y234_C238W], the enrichment score was inactive: 1.61.
Take CTTVHYNYMCN [TP53_Y234_I232V]: the enrichment score was inactive: 2.67.
Same read-out and setting: in the case of CTTIHYNFTCN [TP53_Y234_M237T_YF] it was active: 3.34; in that of SVVAPYEPPEV [TP53_Y220_V218A], inactive: 0.904; in that of CTTIHYNFMWN [TP53_Y234_C238W_YF], inactive: 2.3.
The same measure, in the same setting: in the case of CTTIHYNFMHN [TP53_Y234_C238H_YF] it was inactive: 2.08; in that of CTTILYNYMCN [TP53_Y234_H233L], inactive: 3.13; in that of CTTIHYNYMFN [TP53_Y234_C238F], inactive: 1.59.
Still for that read-out and setting: in the case of SVVGPYEPPEV [TP53_Y220_V218G] it was inactive: 0.687; in that of CTTIHYNYICN [TP53_Y234_M237I], inactive: 2.99.
